Sequences with one replicate were seen in a single cluster, so their values are uncertain.
Tested on: ATP
Assay: switch fluorescence ratio, 500 uM ATP over buffer (Cy3 cluster intensity, sum of 5 cycles each) (fold (ratio)); higher = stronger signal-on switching upon ATP binding; sequences stand for … in TCGTCGGCAGCGTCAGATGTGTATAAGAGACAGTTTTTTTTTTTTTTTTTTTTTTTTT…TC
Settings: aptamer strand: ATP DNA aptamer (quencher-CACCTGGGGGAGTATTGCGGAGGAAGG + anchor), 100 nM annealed; ATP concentration: 500 uM; one replicate
How it was run: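 Cy3-labelled switching-strand clusters on a modified Illumina MiSeq flow-cell were annealed to 100 nM quencher-labelled ATP aptamer, imaged in selection buffer, then imaged after 15 min with 500 uM ATP at 22 °C. Five buffer/ATP cycles ran, with NaOH stripping and re-annealing between them. The fluorescence ratio is summed target-cycle over summed buffer-cycle Cy3 intensity per cluster, averaged per switch-domain sequence. Clusters outside 100-1000 RFU were excluded.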
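Also: ATP exposure 15 min at 22 °C before imaging.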

Row | Sequence | switch fluorescence ratio
1 | TGCAAATATA | 0.979
2 | CGGCAGGGCC | 0.99
3 | CATGCGAGCA | 0.964
4 | ATTTTACTGA | 1.04
5 | TAGCATGTAG | 1.05
6 | TAACGAGTAT | 1.02
7 | CCATGAAAGG | 0.98
8 | CTCTGGGCAC | 1.33
9 | CCGTCCGCCT | 2.28
10 | AGATTGAGCA | 1.01
11 | GCGGAGCCTG | 0.98
12 | GAAGTTTAAC | 1.82
13 | GTATTCACAT | 1.02
14 | GCCCTTGAAA | 1.02
15 | TGTGGATGGC | 1.03
16 | AAGCGTAGCC | 1.05
17 | TAAGGGTCGA | 1.01
18 | ATATCGTCAT | 0.933
19 | CCCGAATTTT | 1
20 | TCACTAGGTT | 0.988
21 | TATAAGGTT | 1.04
22 | TACTAGTTTT | 1
23 | CATGTCGTCC | 1.06
24 | AAGATCTCCT | 1.02
25 | GTGAATAGGA | 0.998

Row | Sequence | switch fluorescence ratio
26 | CGAGATATAT | 0.982
27 | GCTTTACCGC | 1.09
28 | GTCCGGAACT | 1.08
29 | AGGGGCAAAA | 1.01
30 | CTGGGCAGAT | 0.972
31 | CGGTACAGCT | 0.988
32 | TCATAGGTAG | 0.952
33 | GGATACAGCG | 0.999
34 | CGGGATGCTC | 1.52
35 | AAAACTCGAG | 1.06
36 | GCAAACGTCG | 0.988
37 | AGGTTCTAG | 0.972
38 | CTCATCTTGT | 1.03
39 | CCAATATGTG | 1.01
40 | GTCCTCGGAC | 1.43
41 | CCTTCGATAG | 3.67
42 | ACGGCTGGCT | 1.07
43 | TGTTCTATCG | 1.02
44 | TGACCGCCTC | 1.53
45 | TCCCGAGTTA | 1.01
46 | AAGTTTGGCT | 1
47 | AACGATTAGC | 0.995
48 | CTCGTCTACA | 0.965
49 | TGCGGCATCT | 1.05
50 | TTTAACTGGT | 0.992

Row | Sequence | switch fluorescence ratio
51 | GGTAATTAGC | 0.992
52 | GCTAGGAAA | 0.969
53 | TAAATTAACC | 1.07
54 | GCTACGGGCG | 1.01
55 | GATAGGTGGA | 0.991
56 | AATTGGTGTG | 0.988
57 | AAGGAAGGAC | 0.975
58 | TATGGGTGTA | 0.997
59 | AAAACGAGG | 1.01
60 | GGGAAATGG | 1.09
61 | GCCTAAGTG | 1.05
62 | ATGCTTGTCC | 0.994
63 | CACTGGAAC | 1.22
64 | ACGAAGTTTG | 1.01
65 | AATTAGGTCC | 0.999
66 | CACAAGGCGA | 0.979
67 | AGTTCCAGCA | 1.13
68 | ATTGGCATCC | 0.99
69 | GCAGTTCTCG | 1.07
70 | GAGGCACAGG | 1.32
71 | GACTATAGG | 0.982
72 | AAGGGGGTGC | 1
73 | GTTTGGGAGA | 0.941
74 | AACACGACAA | 1.19
75 | GACCAGGCTG | 1.05

Row | Sequence | switch fluorescence ratio
76 | TGCGTCTTGT | 0.93
77 | TCAGCATTTG | 1.06
78 | AATGAACTTA | 1.06
79 | CACGATGTCG | 1.29
80 | TGTTGGCTT | 0.94
81 | AGATAACGTT | 1.01
82 | ATATCAACCA | 0.998
83 | ATTGAATCTC | 0.979
84 | GCGACGATAG | 1.02
85 | GTATAAGAAT | 0.991
86 | TGGAGTCTCT | 1.01
87 | CCCCCTTGAC | 1.49
88 | CCATGTCCCG | 0.972
89 | TGCCAGAACG | 0.99
90 | AGTTCTGCC | 1.07
91 | ACCTTTCGAG | 2.77
92 | ATCGTACATC | 1.1
93 | GCGAACCCTT | 1.01
94 | ATCGTAGCGC | 1.27
95 | AGTGCATGCG | 1.03
96 | GACCGGCGTG | 1.01
97 | AGGGGACCTG | 0.988
98 | GGTTAATCGA | 1.01
99 | GTTACAGGAA | 0.983
100 | CTTTCTGGAG | 1.29

Row | Sequence | switch fluorescence ratio
101 | AGTCCACTC | 1.05
102 | CGGCTGAGCT | 1.01
103 | GCGCGTACGG | 1.04
104 | GAGGTTGTTC | 0.964
105 | GCGCTTAGT | 1.05
106 | TTATGTTCCT | 0.989
107 | CCTGCTGGGT | 1.01
108 | ACACTTGGGG | 0.949
109 | CGGTTGGTCT | 1.04
110 | ATCGTTAGCT | 1.01
111 | CCATATTTCT | 0.967
112 | GAATTTCGTG | 1.01
113 | TACCCAGGGG | 4.2
114 | CTCTCACAAT | 2.37
115 | GTAATCAATT | 0.963
116 | ATTAGGACAT | 1.02
117 | AAAGCAATGA | 2.12
118 | AGGAAAGGTC | 0.97
119 | CTGGACGTCG | 0.956
120 | CGGTCGATTG | 0.941
121 | GCGTCGTCCT | 0.962
122 | ACCGGTAATC | 1.07
123 | GACCGCCGAT | 1.11
124 | TTTGAGTTA | 1
125 | TACCGCTTGA | 1.04

Row | Sequence | switch fluorescence ratio
126 | ATAAGGCAAT | 1.03
127 | TCGGTAGG | 0.964
128 | TCAGGATACT | 1.04
129 | AGGATCCGAC | 1.02
130 | GGGATATATA | 1.07
131 | TGTTTAGTAA | 0.994
132 | CCAGTGTGG | 1.07
133 | TGGTCACTTA | 0.979
134 | CAAGATAGGT | 1
135 | TAGCCATTG | 0.995
136 | TGAACATGAC | 1.3
137 | GTCGGATGTA | 0.956
138 | CTACCAGGCG | 1.64
139 | TCATGGTTCA | 1.02
140 | GGTGTCAGGA | 1.04
141 | TAAGTGTATC | 0.973
142 | TTCAGCAGGG | 1.05
143 | GGGTTAGTGA | 0.976
144 | CAAACCTCTT | 1.04
145 | CCCTGGGCGG | 1.77
146 | CAGTTCATAG | 1.01
147 | GCCAGGTATT | 1
148 | GGGGCTCTTG | 1.01
149 | CACATAAGCG | 1.05
150 | TCAACCAAAC | 1.17

Row | Sequence | switch fluorescence ratio
151 | GGGACCCAGT | 1.04
152 | TTGGTAGTTA | 0.98
153 | TTAAACCGTT | 0.994
154 | ACATGAGTTT | 0.992
155 | GGCGGGTTAA | 1.01
156 | TGTAATCTTT | 0.993
157 | TGACATTTCC | 1.15
158 | CAAGCTTTGA | 0.976
159 | ATCAGCCGCA | 1.09
160 | TTACAGGGTT | 1.08
161 | TATCCGTGTC | 1.03
162 | GGCATACTGG | 1
163 | GCAGATAACC | 1.02
164 | CCCCGTTACT | 3.43
165 | TTAGGTACAC | 1.03
166 | GGGCGGTCGT | 0.97
167 | GCACTTTAAT | 0.983
168 | CTAGCCGTTT | 0.957
169 | TTATTCGTTC | 0.998
170 | ACATCAGTTA | 1.02
171 | GCTAGTTCCA | 1.06
172 | AGGGACAATG | 1.04
173 | GCGATGCACG | 1.12
174 | TTTAGCATTC | 1.46
175 | GGGGCCCAAG | 0.972

Row | Sequence | switch fluorescence ratio
176 | TAGAGCAATC | 5.71
177 | TTTCAACTTT | 1.01
178 | GGGTCCCTGG | 1.1
179 | GGGTGGGAAC | 1.03
180 | CGATCAGGGG | 1.12
181 | TGGATGCAGG | 0.982
182 | GATGCCGGAG | 0.949
183 | TTTATGGTAC | 1.06
184 | CATTCGTTGG | 0.988
185 | GGAATCTGGT | 1
186 | CAGTGGTTGA | 0.975
187 | GAGCGCTCCT | 0.992
188 | AGAACCTTGG | 1.02
189 | TTGCACAGTA | 1.05
190 | ACGAGTACTA | 1.1
191 | CCGTTTCCGT | 1.08
192 | ATTGGTCCAT | 1
193 | GACGAGGGA | 1.08
194 | GAATGGTTA | 1.03
195 | GGGCAATGTG | 0.995
196 | GCTACTTGCG | 1.01
197 | AGCCGGTTGT | 0.974
198 | ATGAGGCGCG | 0.946
199 | ATTTACGTTC | 1.03
200 | CTGAGTCCTG | 1.07

Reference: the supplement of paper PMC10126150
